{"source": "paper PMC4336329", "about": "(PLoS ONE, 2015)", "note": "Hit rate of the full screen: of about 310,000 compounds, about 14,000 (4.5%) showed an effect of 50% or more. The effect is printed as a negative number. The list shows a part of the results.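 Also: peak tail current of the secondary pulse compared with the same well before compound.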"}
{"biological_target": "human ether-à-go-go-related gene (hERG) potassium channel (human, UniProt Q12809)", "sequence (Q12809 whole entry, looked up)": "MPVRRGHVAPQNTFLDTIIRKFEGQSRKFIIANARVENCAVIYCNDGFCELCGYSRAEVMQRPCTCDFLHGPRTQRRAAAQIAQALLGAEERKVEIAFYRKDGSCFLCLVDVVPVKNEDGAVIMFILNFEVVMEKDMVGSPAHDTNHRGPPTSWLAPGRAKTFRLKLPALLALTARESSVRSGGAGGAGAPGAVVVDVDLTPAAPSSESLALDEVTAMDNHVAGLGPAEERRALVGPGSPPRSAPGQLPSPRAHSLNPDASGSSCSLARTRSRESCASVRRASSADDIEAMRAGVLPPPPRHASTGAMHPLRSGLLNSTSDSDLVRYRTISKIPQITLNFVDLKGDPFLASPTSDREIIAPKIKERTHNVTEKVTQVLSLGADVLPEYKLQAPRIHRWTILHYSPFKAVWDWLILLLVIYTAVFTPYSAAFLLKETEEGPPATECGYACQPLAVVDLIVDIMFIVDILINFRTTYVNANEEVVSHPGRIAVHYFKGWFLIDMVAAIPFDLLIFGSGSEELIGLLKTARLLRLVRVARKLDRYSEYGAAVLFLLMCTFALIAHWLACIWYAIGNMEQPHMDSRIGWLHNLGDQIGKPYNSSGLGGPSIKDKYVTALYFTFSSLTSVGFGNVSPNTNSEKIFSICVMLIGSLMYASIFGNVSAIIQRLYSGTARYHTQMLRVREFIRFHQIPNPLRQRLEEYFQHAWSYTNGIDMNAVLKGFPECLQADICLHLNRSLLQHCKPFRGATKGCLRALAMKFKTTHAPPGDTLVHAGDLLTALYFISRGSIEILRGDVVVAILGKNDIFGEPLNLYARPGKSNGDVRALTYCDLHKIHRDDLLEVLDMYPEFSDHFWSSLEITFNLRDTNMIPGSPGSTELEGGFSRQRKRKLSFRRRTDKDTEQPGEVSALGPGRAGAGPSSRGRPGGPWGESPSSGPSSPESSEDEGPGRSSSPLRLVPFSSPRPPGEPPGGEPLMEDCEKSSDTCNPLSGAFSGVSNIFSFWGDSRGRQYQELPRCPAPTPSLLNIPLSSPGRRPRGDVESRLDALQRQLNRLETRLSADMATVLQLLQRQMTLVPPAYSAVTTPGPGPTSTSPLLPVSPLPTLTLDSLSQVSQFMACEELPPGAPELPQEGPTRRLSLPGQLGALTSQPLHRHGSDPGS", "experiment": "primary screen, population patch clamp on CHO cells stably expressing hERG", "units": {"hERG current change (%, negative = inhibition) at 10uM": "%"}}
{"smiles": "O=C(Cc1cccc(C(F)(F)F)c1)NCc1ccc(Cl)cc1", "hERG current change (%, negative = inhibition) at 10uM": -18.3}
{"smiles": "CCOc1ccc(-c2cc3nc(C4CCN(C(=O)OC(C)(C)C)CC4)c(C(=O)O)cn3n2)cc1", "hERG current change (%, negative = inhibition) at 10uM": 6.05}
{"smiles": "COc1cc2c(cc1OC)C1=NC(=O)CN1C(SCc1ccc(C)cc1)=N2", "hERG current change (%, negative = inhibition) at 10uM": 15.8}
{"smiles": "COC(=O)CCCCNC(=O)Nc1ccccc1", "hERG current change (%, negative = inhibition) at 10uM": 10.8}
{"smiles": "CC(C)(C)NC(=S)NCCc1ccccc1", "hERG current change (%, negative = inhibition) at 10uM": 22.7}
{"smiles": "Cc1cc(C)n(CCCNC(=O)CN(C)S(=O)(=O)c2ccc(Cl)cc2)n1", "hERG current change (%, negative = inhibition) at 10uM": -17.2}
{"smiles": "CCOc1ccc(NS(=O)(=O)c2ccc(C)c(C(=O)NCCCn3ccnc3)c2)cc1", "hERG current change (%, negative = inhibition) at 10uM": 24.1}
{"smiles": "COc1ccc(CNC(=S)N/N=C/c2ccc(OC)c(OC)c2)cc1", "hERG current change (%, negative = inhibition) at 10uM": 0.504}
{"smiles": "O=S(=O)(Nc1cccc2ccccc12)c1cccc2nonc12", "hERG current change (%, negative = inhibition) at 10uM": 3.98}
{"smiles": "O=C(NC(=O)N1CCCC1)c1csnn1", "hERG current change (%, negative = inhibition) at 10uM": 14}
{"smiles": "Fc1cccc(/C=N/Nc2nncc3ccccc23)c1", "hERG current change (%, negative = inhibition) at 10uM": -13.6}
{"smiles": "Nc1nnc(SCC(=O)OCc2ccc(Cl)c(Cl)c2)s1", "hERG current change (%, negative = inhibition) at 10uM": 12.2}
{"smiles": "Cc1ccc2nc3c(cc2c1)CN(Cc1ccco1)C(=NCC1CCCO1)S3", "note": "(centres unmarked)", "hERG current change (%, negative = inhibition) at 10uM": 0.231}
{"smiles": "C/C=C(/C)C(=O)Nc1cccc(C2=NOC3(C2)C[C@H](C(N)=O)N(C(=O)Cc2ccc([N+](=O)[O-])cc2)C3)c1", "note": "(some centres unmarked)", "hERG current change (%, negative = inhibition) at 10uM": -5.06}
{"smiles": "COc1ccc(CCNC(=O)CCNS(=O)(=O)c2cccc3nsnc23)cc1OC", "hERG current change (%, negative = inhibition) at 10uM": 5.26}
{"smiles": "COc1cc(C2N(c3ccccc3)CCN2c2ccccc2)ccc1OC(C)=O", "hERG current change (%, negative = inhibition) at 10uM": -1.36}
{"smiles": "CCC(C)NC(=O)C1CCCN1S(=O)(=O)c1ccc(Cl)cc1", "note": "(centres unmarked)", "hERG current change (%, negative = inhibition) at 10uM": 12.4}
{"smiles": "Cc1ccc(NC(=S)N(CCN(C)C)C(C)c2ccco2)cc1C", "note": "(centres unmarked)", "hERG current change (%, negative = inhibition) at 10uM": -44.3}
{"smiles": "COCC(C)NC(=O)C(C)N1c2cccc3cccc(c23)S1(=O)=O", "note": "(centres unmarked)", "hERG current change (%, negative = inhibition) at 10uM": 20.3}
{"smiles": "CC(=O)Nc1cccc(NC(=O)C(C)N2c3cccc4cccc(c34)S2(=O)=O)c1", "note": "(centres unmarked)", "hERG current change (%, negative = inhibition) at 10uM": -3.03}
{"smiles": "COc1ccc(C[C@H]2NC[C@H](O)[C@H]2OC(C)=O)cc1", "hERG current change (%, negative = inhibition) at 10uM": 5.98}
{"smiles": "C=CCN(c1ccc(OC)cc1)S(=O)(=O)c1ccc(Cl)c(C(=O)OCC(=O)NC2CC2)c1", "hERG current change (%, negative = inhibition) at 10uM": -11.5}
{"smiles": "O=C(CSc1cn(CCNC(=O)c2cccs2)c2ccccc12)NC1CCCC1", "hERG current change (%, negative = inhibition) at 10uM": -36.5}
{"smiles": "Cc1ccc(C)c(S(=O)(=O)NCCC(=O)N2CCCC(C(N)=O)C2)c1", "note": "(centres unmarked)", "hERG current change (%, negative = inhibition) at 10uM": -0.00222}
{"smiles": "Clc1ccc(Cn2nnc(-c3ccc(N4CCOCC4)cc3)n2)cc1", "hERG current change (%, negative = inhibition) at 10uM": 4.16}
{"smiles": "NNc1nc(Nc2ccccc2)nc(Nc2ccccc2)n1", "hERG current change (%, negative = inhibition) at 10uM": 1.94}
{"smiles": "CCCC(=O)NCCc1cc2c(C)ccc(C)c2[nH]c1=O", "hERG current change (%, negative = inhibition) at 10uM": -5.19}
{"smiles": "CC(C)Oc1ccc(C(=O)OC(C)C(=O)Nc2nc(-c3cccc([N+](=O)[O-])c3)cs2)cc1", "note": "(centres unmarked)", "hERG current change (%, negative = inhibition) at 10uM": 6.27}
{"smiles": "CCCCCCn1c(NCC)nc2c1c(=O)n(C)c(=O)n2C", "hERG current change (%, negative = inhibition) at 10uM": 2.03}
{"smiles": "O=C1C(C=NCCN2CCOCC2)=C(O)c2ccccc21", "hERG current change (%, negative = inhibition) at 10uM": 0.0703}
{"smiles": "O=C(COc1cc2oc(=O)c3c(c2cc1Cl)CCC3)NCCCn1ccnc1", "hERG current change (%, negative = inhibition) at 10uM": -34.9}
{"smiles": "CCCc1ccc(C(=O)N2CCN(c3ccccc3OCC)CC2)cc1", "hERG current change (%, negative = inhibition) at 10uM": -56.3}
{"smiles": "N/C(=N\\OC(=O)C1CC1)c1ccc([N+](=O)[O-])s1", "hERG current change (%, negative = inhibition) at 10uM": 8.23}
{"smiles": "Cc1cc(NN)nc(NS(=O)(=O)c2ccc(Cl)cc2)n1", "hERG current change (%, negative = inhibition) at 10uM": 23.4}
{"smiles": "CC(C)C(NC(=O)c1ccc(C(C)(C)C)cc1)C(=O)OCC(=O)NC(=O)Cc1ccccc1", "note": "(centres unmarked)", "hERG current change (%, negative = inhibition) at 10uM": 8.36}
{"smiles": "Cc1cccc2cc(/C=N/NC(=O)CN3CCOCC3)c(Cl)nc12", "hERG current change (%, negative = inhibition) at 10uM": -1.73}
{"smiles": "COc1ccc(S(=O)(=O)N2CCCOC2CNC(=O)C(=O)NCc2ccncc2)cc1", "note": "(centres unmarked)", "hERG current change (%, negative = inhibition) at 10uM": -0.238}
{"smiles": "Cc1nc2sccn2c(=O)c1S(=O)(=O)NCC1CCN(Cc2ccccc2Cl)CC1", "hERG current change (%, negative = inhibition) at 10uM": -25.9}
{"smiles": "Cc1ccccc1-n1nnnc1SCc1ncc(-c2ccccc2)o1", "hERG current change (%, negative = inhibition) at 10uM": 0.503}
{"smiles": "CCCC(C)NC(=O)COC(=O)c1cc(Br)c(Br)s1", "note": "(centres unmarked)", "hERG current change (%, negative = inhibition) at 10uM": 0.346}
{"smiles": "COc1cc2c(cc1OC)CN(C(=O)c1sc(-c3cnccn3)nc1C)CC2", "hERG current change (%, negative = inhibition) at 10uM": 0.572}
{"smiles": "O=S1(=O)CCOC[C@H](CC2CCCCC2)N1Cc1ccccc1F", "hERG current change (%, negative = inhibition) at 10uM": 10.1}
{"smiles": "COC(=O)CCN1CCN(S(=O)(=O)c2cccc(Br)c2)CC1", "hERG current change (%, negative = inhibition) at 10uM": 8.58}
{"smiles": "CCN(CC)CCNC(=O)c1cn(C)c2ccc(S(=O)(=O)N(C)C3CCCCC3)cc2c1=O", "hERG current change (%, negative = inhibition) at 10uM": -42.8}
{"smiles": "Cc1cccc(NC(=O)CCC(=O)Nc2nnc(C(F)(F)F)s2)c1", "hERG current change (%, negative = inhibition) at 10uM": 12.7}
{"smiles": "CCCCCn1c(=O)c(C(=O)Nc2nc(CC(=O)OCC)cs2)c(O)c2ccccc21", "hERG current change (%, negative = inhibition) at 10uM": 32.6}
{"smiles": "COc1nc(-c2ccccc2)nc(-c2ccccc2)c1C", "hERG current change (%, negative = inhibition) at 10uM": 9.92}
{"smiles": "CCN1CCCC1CNCC(O)COc1ccc(C(C)(C)C)cc1C.O=C(O)C(=O)O", "note": "(centres unmarked)", "hERG current change (%, negative = inhibition) at 10uM": -54.4}
{"smiles": "CCCCCOP(=O)(OCCCCC)C1(NS(=O)(=O)c2ccccc2)C=CC(=O)c2ccccc21", "note": "(centres unmarked)", "hERG current change (%, negative = inhibition) at 10uM": 9.76}
{"smiles": "Cc1cc(Oc2ccc(Cl)cc2)nc(SCC(=O)c2ccccc2)n1", "hERG current change (%, negative = inhibition) at 10uM": 3.88}
{"smiles": "O=C(COc1ccccc1)N1CCN(S(=O)(=O)c2ccc(Cl)cc2)CC1", "hERG current change (%, negative = inhibition) at 10uM": -2.27}
{"smiles": "COc1cccc(-n2nnc3c(=O)n(Cc4ccccc4Cl)cnc32)c1", "hERG current change (%, negative = inhibition) at 10uM": -5.5}
{"smiles": "COc1ccc(CNC(=O)C(=O)NCc2cccnc2)cc1", "hERG current change (%, negative = inhibition) at 10uM": -6.16}
{"smiles": "O=C(NCc1cccc(F)c1)C1CCC(=O)N(CC2CCCCC2)C1", "note": "(centres unmarked)", "hERG current change (%, negative = inhibition) at 10uM": -9.08}
{"smiles": "Cc1ccc(/C=N/NC(=O)c2sccc2OCc2ccc(F)cc2)cc1", "hERG current change (%, negative = inhibition) at 10uM": 6.54}
{"smiles": "CC1=NN(C(=O)Cc2ccccc2)C(O)(c2ccccc2)C1", "note": "(centres unmarked)", "hERG current change (%, negative = inhibition) at 10uM": 19.1}
